Reference: the supplement of paper PMC10369915
This is one part of the list. Rule as the data show it: active = 3.2 or more and inactive = the rest. Most of these values are background signal.

Experiments:
Experiment in all cases: enrichment score (SH2-bound / input frequency) (ratio); bacterial display of known human phosphotyrosine sites (pTyr-Var adds point mutants) read by sequencing; higher = stronger binding; tyrosines were phosphorylated by kinases first
Conditions in all cases: peptide library: pTyr-Var
SHP2 C-SH2 domain E139D = target: SHP2 C-SH2 domain E139D
[1] = target: SHP2 C-SH2 domain wild-type
SHP2 N-SH2 domain L43F = target: SHP2 N-SH2 domain L43F
SHP2 N-SH2 domain T42A = target: SHP2 N-SH2 domain T42A
SHP2 N-SH2 domain T52S = target: SHP2 N-SH2 domain T52S
[2] = target: SHP2 N-SH2 domain wild-type

Measured: enrichment score
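Also: displayed peptides selected on beads carrying the immobilized SH2 domain, with library peptides lacking any tyrosine serving as negative controls.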

TEQDPYNNIVR [MMUT_Y364]
inactive: SHP2 C-SH2 domain E139D 0.626 | [1] 0.504 | SHP2 N-SH2 domain L43F 0.532 | SHP2 N-SH2 domain T42A 0.523 | SHP2 N-SH2 domain T52S 0.521 | [2] 0.592

YFVVEYRDQKP [MUC17_Y4332]
inactive: SHP2 C-SH2 domain E139D 1.85 | [1] 2.99 | SHP2 N-SH2 domain L43F 1.8 | SHP2 N-SH2 domain T42A 1.98 | SHP2 N-SH2 domain T52S 1.75 | [2] 1.83

PFRSIYFSSPK [MPG_Y75_YF]
inactive: SHP2 C-SH2 domain E139D 0.96 | [1] 0.816 | SHP2 N-SH2 domain L43F 0.892 | SHP2 N-SH2 domain T42A 0.757 | SHP2 N-SH2 domain T52S 0.843 | [2] 0.777

SSDKVYAHQMD [MLH1_Y379_V384D]
inactive: SHP2 C-SH2 domain E139D 0.467 | [1] 0.471 | SHP2 N-SH2 domain L43F 0.428 | SHP2 N-SH2 domain T42A 0.399 | SHP2 N-SH2 domain T52S 0.563 | [2] 0.504

FFVVRYCWLRR [MPZ_Y181_YF]
inactive: SHP2 C-SH2 domain E139D 0.325 | [1] 0.571 | SHP2 N-SH2 domain L43F 0.3 | SHP2 N-SH2 domain T42A 0.213 | SHP2 N-SH2 domain T52S 0.311 | [2] 0.211

WKKKIYEESST [MOCS2_Y170_E168K]
inactive: SHP2 C-SH2 domain E139D 0.613 | [1] 0.854 | SHP2 N-SH2 domain L43F 0.694 | SHP2 N-SH2 domain T42A 0.557 | SHP2 N-SH2 domain T52S 0.708 | [2] 0.933

ATFRGYDSDNP [MMUT_Y146_H143Y_YF]
inactive: SHP2 C-SH2 domain E139D 0.964 | [1] 0.567 | SHP2 N-SH2 domain L43F 0.792 | SHP2 N-SH2 domain T42A 1.08 | SHP2 N-SH2 domain T52S 0.563 | [2] 0.873

QMQNPYSSHSS [MUC13_Y501_R503S]
inactive: SHP2 C-SH2 domain E139D 0.538 | [1] 0.62 | SHP2 N-SH2 domain L43F 0.57 | SHP2 N-SH2 domain T42A 0.503 | SHP2 N-SH2 domain T52S 0.425 | [2] 0.699

TNDRLYLRSLE [MTM1_Y71_Y68D]
inactive: SHP2 C-SH2 domain E139D 0.914 | [1] 0.63 | SHP2 N-SH2 domain L43F 0.765 | SHP2 N-SH2 domain T42A 0.626 | SHP2 N-SH2 domain T52S 0.729 | [2] 0.911

NAMRRHIEEFQ [MNS1_Y244_Y244H]
inactive: SHP2 C-SH2 domain E139D 0.884 | [1] 0.825 | SHP2 N-SH2 domain L43F 0.747 | SHP2 N-SH2 domain T42A 0.735 | SHP2 N-SH2 domain T52S 0.753 | [2] 1.06

LLLLFYVVRFC [MPZ_Y177_YF]
inactive: SHP2 C-SH2 domain E139D 1.87 | [1] 1.67 | SHP2 N-SH2 domain L43F 1.57 | SHP2 N-SH2 domain T42A 1.63 | SHP2 N-SH2 domain T52S 1.65 | [2] 1.26

RQSTLYSFFPT [MSH6_Y8_K13T]
inactive: SHP2 C-SH2 domain E139D 0.828 | [1] 1.02 | SHP2 N-SH2 domain L43F 1.11 | SHP2 N-SH2 domain T42A 0.941 | SHP2 N-SH2 domain T52S 1.1 | [2] 0.873

YFVVEYRNQKP [MUC17_Y4332_D4334N]
inactive: SHP2 C-SH2 domain E139D 1.97 | [1] 2.72 | SHP2 N-SH2 domain L43F 2.04 | SHP2 N-SH2 domain T42A 2.21 | SHP2 N-SH2 domain T52S 2.31 | [2] 1.94

PLFKIYVAELI [MRPL28_Y230]
inactive: SHP2 C-SH2 domain E139D 1.85 | [1] 1.45 | SHP2 N-SH2 domain L43F 1.51 | SHP2 N-SH2 domain T42A 1.01 | SHP2 N-SH2 domain T52S 1.34 | [2] 1.3

IITDFYVDMKF [MPP4_Y567_V562I_YF]
inactive: SHP2 C-SH2 domain E139D 1.3 | [1] 1.71 | SHP2 N-SH2 domain L43F 1.37 | SHP2 N-SH2 domain T42A 1.44 | SHP2 N-SH2 domain T52S 1.3 | [2] 1.64

FLENFYDLKKD [MMP3_Y42_YF]
inactive: SHP2 C-SH2 domain E139D 1.39 | [1] 1.05 | SHP2 N-SH2 domain L43F 1.06 | SHP2 N-SH2 domain T42A 1.09 | SHP2 N-SH2 domain T52S 1.01 | [2] 1.16

VDEVLYEDSST [MTHFS_Y197]
inactive: SHP2 C-SH2 domain E139D 0.629 | [1] 0.68 | SHP2 N-SH2 domain L43F 0.85 | SHP2 N-SH2 domain T42A 0.732 | SHP2 N-SH2 domain T52S 0.733 | [2] 0.696

GDSVQYNRTTD [MLPH_Y454_P451S]
inactive: SHP2 C-SH2 domain E139D 0.486 | [1] 0.571 | SHP2 N-SH2 domain L43F 0.507 | SHP2 N-SH2 domain T42A 0.371 | SHP2 N-SH2 domain T52S 0.477 | [2] 0.498
